Measured values reported in article PMC4336329 (PLoS ONE, 2015).
Hit rate of the full screen: of about 310,000 compounds, about 2,200 (0.71%) showed an effect of 50% or more. The effect is printed as a negative number. The list shows a part of the results.

These compounds were tested against human ether-à-go-go-related gene (hERG) potassium channel (human, UniProt Q12809) (assay: primary screen, population patch clamp on CHO cells stably expressing hERG).
Chain of human ether-à-go-go-related gene (hERG) potassium channel (Q12809 whole entry, looked up): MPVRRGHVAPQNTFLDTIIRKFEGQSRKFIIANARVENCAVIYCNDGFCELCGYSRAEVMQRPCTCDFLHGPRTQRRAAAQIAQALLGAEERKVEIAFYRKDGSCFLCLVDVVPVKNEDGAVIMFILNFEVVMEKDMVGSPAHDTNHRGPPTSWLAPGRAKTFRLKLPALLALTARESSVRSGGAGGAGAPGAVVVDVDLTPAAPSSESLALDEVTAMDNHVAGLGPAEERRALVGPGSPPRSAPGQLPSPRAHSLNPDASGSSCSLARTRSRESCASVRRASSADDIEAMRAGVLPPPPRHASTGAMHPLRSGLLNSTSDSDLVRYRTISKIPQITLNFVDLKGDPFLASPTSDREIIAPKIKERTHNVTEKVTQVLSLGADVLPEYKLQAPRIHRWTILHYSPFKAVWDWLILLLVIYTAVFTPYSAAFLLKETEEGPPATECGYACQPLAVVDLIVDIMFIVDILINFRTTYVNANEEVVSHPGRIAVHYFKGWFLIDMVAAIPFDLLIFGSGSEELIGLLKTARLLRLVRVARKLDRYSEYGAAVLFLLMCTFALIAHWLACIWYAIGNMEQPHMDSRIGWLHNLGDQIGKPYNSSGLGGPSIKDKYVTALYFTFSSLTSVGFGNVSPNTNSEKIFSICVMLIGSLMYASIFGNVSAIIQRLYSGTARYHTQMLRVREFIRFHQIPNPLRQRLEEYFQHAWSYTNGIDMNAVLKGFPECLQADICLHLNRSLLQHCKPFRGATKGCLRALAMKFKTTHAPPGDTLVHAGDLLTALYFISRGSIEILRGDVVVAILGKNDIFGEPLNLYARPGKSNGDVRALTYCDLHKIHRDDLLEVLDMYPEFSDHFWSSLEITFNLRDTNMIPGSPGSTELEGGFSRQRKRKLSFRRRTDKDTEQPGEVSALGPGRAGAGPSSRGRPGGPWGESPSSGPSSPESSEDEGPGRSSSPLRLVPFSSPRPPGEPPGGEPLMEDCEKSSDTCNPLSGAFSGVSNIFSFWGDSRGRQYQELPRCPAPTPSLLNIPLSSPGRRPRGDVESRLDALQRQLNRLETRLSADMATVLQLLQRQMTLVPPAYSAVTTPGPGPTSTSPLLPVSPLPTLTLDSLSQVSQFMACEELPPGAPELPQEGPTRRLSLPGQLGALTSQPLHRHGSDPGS

Structure (SMILES)	hERG current change (%, negative = inhibition) at 1uM
CC[n+]1c(/C=C/C=C/N(C(C)=O)c2ccccc2)sc2cc(OC)ccc21.[I-]	7.77%
CC(C)CCn1c(=O)c(C(=O)Nc2ccccc2S(N)(=O)=O)c(O)c2ccccc21	-5.07%
CC1CC(C)CN(S(=O)(=O)c2ccc3c(c2)oc(=O)n3CC(=O)N(C)Cc2ccccc2)C1 (stereo not drawn)	8.45%
CC(C)(C)c1[nH]nc2c1C(c1ccc(OC(=O)c3ccco3)cc1)C(C#N)=C(N)O2 (stereo not drawn)	15.7%
Cc1cc(C)nc(/N=C2\NC(=O)CC(C(=O)O)N2CCc2c[nH]c3ccccc23)n1 (stereo not drawn)	9.1%
CCOC(=O)N1CCN(C(=O)COC(=O)COc2c(C)cc(C)cc2C)CC1	5.89%
O=C(Nc1ccc(Cl)c(C(F)(F)F)c1)NC1CC2CCCC(C1)N2C1CC1 (stereo not drawn)	3.65%
Cc1csc2nc(CN3CCN(CC(=O)N(C)C)CC3)cc(=O)n12	17.3%
CC1(C)Cc2cccc(OCC(=O)N3CCN(S(=O)(=O)c4ccc(F)cc4)CC3)c2O1	4.38%
Cc1[nH]ncc1-c1nc2ccccc2[nH]1	11.5%
CC(=O)Nc1cccc(C(=O)OCC(=O)N2CCC(c3ccccc3)=N2)c1	-2.66%
CCOc1ccc(Cc2nnc(SCC(=O)Nc3ccc(C(C)=O)cc3)[nH]c2=O)cc1	17.5%
CC1CC(NNC(=O)c2ccccc2)=Nc2ccccc2N1C (stereo not drawn)	6.85%
O=C1C2C3C=CC(C3)C2C(=O)N1c1nc2ccccc2s1 (stereo not drawn)	6.86%
O=C(O)CN1C(=O)CSC1=S	15.4%
CC(=O)N1CCN2C(=O)C1CCCC(=O)c1cc(C(C)C)ccc12 (stereo not drawn)	19.1%
CCCCOC(=O)c1ccc(NC(=O)c2nn(C)cc2Br)cc1	13.1%
CCOc1ccccc1C(=O)N1CCN=C1SC	12%
CCOc1ccccc1NC(=O)c1cc(C(=O)Nc2ccccc2OCC)cc(N2C(=O)CCC2=O)c1	9.33%
C=CCn1c(SC(C)C(=O)c2c(N)n(C)c(=O)n(C)c2=O)nnc1-c1ccoc1C (stereo not drawn)	10.1%
Cc1cc(C)cc(N(CC(=O)Nc2ccc(C(F)(F)F)cc2)S(=O)(=O)c2c(C)[nH]c(=O)[nH]c2=O)c1	-26.1%
CC(=O)Nc1ccc(NC(=O)CC2Nc3cccc4cccc(c34)NC2=O)cc1 (stereo not drawn)	9.98%

Structure (SMILES)	hERG current change (%, negative = inhibition) at 1uM
O=C(NCc1ccccc1F)C1CCN(C(=O)c2sccc2-n2cccc2)CC1	9.46%
CCOc1ccccc1-n1cnc(C#N)c1N	13.6%
CCOc1ccc(NC(=O)CN(C)C(=O)CCCc2nc3ccccc3c(=O)[nH]2)cc1OCC	15.9%
CCOC(=O)CNC(=O)c1sc2ncnc(N3CCc4ccccc4C3)c2c1C	-23.5%
O=C(NC(=S)Nc1ccc(N2CCOCC2)cc1)c1ccc(Cl)cc1	11.2%
COc1ccc(C(=O)Nc2ccc(Cl)cc2C(=O)NCc2ccco2)cc1OC	-4.14%
O=C(NC(=S)Nc1cccc(CO)c1)c1ccc(-c2ccccc2)cc1	9.54%
N#C/C(=C/c1ccc(-c2cc([N+](=O)[O-])ccc2Cl)o1)C(N)=O	11.7%
Cc1nc([N+](=O)[O-])c(C(=O)O)n1C	14.5%
COc1cc(C)c(CN2CCSCC2)cc1C	10.9%
Cc1cc(C)cc(NC(=O)CNC(c2ccccc2)c2ccccc2)c1	14.2%
CSc1cccc(NC(=S)NCCCO)c1	-4.89%
COC(=O)c1sc(NC(=S)NC(=O)c2cccc(C)c2)nc1C	9.67%
COc1ccc(/C=N/OCC(=O)NC(c2ccccc2)c2ccccc2)cc1OC	9.01%
COCCN1Cc2cccc(C(=O)Nc3cccc(OC)c3)c2C1=O	6.47%
CC(=O)N(Cc1ccc(Br)cc1)c1cccc(C)c1C	3.8%
COc1c2ccoc2nc2c(OC)cccc12	12.6%
O=C(O)CC(C(=O)O)c1cn(Cc2ccccc2)c2ccccc12 (stereo not drawn)	14.8%
CS(=O)(=O)N(CC(=O)O)c1ccc2c(c1)OCO2	4.18%
O=C(NCc1ccc(F)cc1)C1CCN(S(=O)(=O)N2CCC3(CC2)OCCO3)CC1	15.4%
CC1CC(C)CN(S(=O)(=O)c2ccc(NC(=O)c3ccc(=O)[nH]c3)cc2)C1 (stereo not drawn)	4.66%
O=C(NCCCN1CCc2ccccc2C1)C1CCN(S(=O)(=O)N2CCCC2)CC1	4.76%

Structure (SMILES)	hERG current change (%, negative = inhibition) at 1uM
O=C(CCc1ccccc1)Nc1ccnn1C1CCN(Cc2ncc[nH]2)CC1	15.5%
COc1nc(NCCN2CCOCC2)nc(Nc2ccc([N+](=O)[O-])cc2)n1	-16.6%
O=C(Nc1ccc(NC(=O)C2CCCCC2)nc1)c1ccccn1	4.7%
O=C(c1cccc(S(=O)(=O)NCc2ccccc2)c1)N1CCCC1	7.8%
Cc1ccc(C(O)C(=O)c2ccco2)cc1 (stereo not drawn)	10.2%
CN(C)C(=O)CCC(=O)N1CCCC(C(=O)c2ccc3c4c(cccc24)CC3)C1 (stereo not drawn)	-21.1%
C[C@@H](O)C1NC(=O)[C@H](CCCCN)NC(=O)c2cc([N+](=O)[O-])cc(I)c2NCCC[C@@H](C(N)=O)NC1=O (stereo partly drawn)	19.6%
O=C(Cn1ncc2c3ccccc3n(Cc3ccccc3F)c2c1=O)N1CCN(c2ccccn2)CC1	12.3%
Cc1n[nH]c(C)c1S(=O)(=O)N1CCCC(C(=O)NCC2COc3ccccc3O2)C1 (stereo not drawn)	5.79%
CCCCn1c(=O)c(CCC(=O)OCC(=O)NCc2ccc(OC)c(OC)c2)nc2ccccc21	5.96%
O=C(c1ccc(-c2cccc(Cl)c2)o1)N1CCN(c2ccc([N+](=O)[O-])cc2)CC1	-14.1%
CC(C)c1ccc(NC(=S)NCc2ccc3c(c2)OCO3)cc1	11.1%
O=C(COc1ccccc1)c1cn(CC(=O)N2CCCC2)c2ccccc12	10%
NNC(=O)c1cnn(Cc2ccccc2)c1N	9.01%
CC1(C)SCC2C(=O)N3C(CSC3(C)C)C(=O)N21 (stereo not drawn)	13.8%
COc1ccccc1N(CC(O)COc1ccccc1)S(=O)(=O)c1ccccc1 (stereo not drawn)	11.6%
Cc1occc1C(=O)N1CCN(S(=O)(=O)c2ccccc2)CC1	13.6%
CNC(=O)CN(Cc1ccccc1)S(=O)(=O)c1ccccc1	-5.14%
Cc1cc(OCc2cc(C(=O)N(Cc3nccn3C)C(C)C)no2)cc(C)c1Cl	10%
O=C(O)c1cccc(CN2C(=O)S/C(=C/c3cccc([N+](=O)[O-])c3)C2=O)c1	9.1%
C/C(CC(=O)N1CCCC1)=N\NC(=O)c1cc2ccccc2cc1O	10.7%
COc1ccc(OC)c(C2N(c3ccc(Cl)cc3)C(=O)C3CCCN32)c1 (stereo not drawn)	14.6%

Structure (SMILES)	hERG current change (%, negative = inhibition) at 1uM
O=C(COc1ccc(Cl)cc1)Nc1ccc2oc(=O)ccc2c1	13.1%
Cc1cnc(C(=O)OCC(=O)Nc2oc(-c3ccccc3)c(-c3ccccc3)c2C#N)cn1	6.32%
COc1ccc(CN2C(=O)c3cccnc3C2=O)cc1S(=O)(=O)N1CCCC(C)C1 (stereo not drawn)	13.9%
Cc1ccnc(N2CCCC(C(=O)Nc3ccc(C)c(C)c3)C2)n1 (stereo not drawn)	9.16%
COc1cc(Cl)c(C)cc1NC(=O)CSc1ccc(C)cc1	9.5%
O=C(NCCCN1CCOCC1)c1cc(-c2ccc(F)cc2)nc2ccccc12	5.37%
Cc1cc(N2C(=O)C(=O)/C(=C(/O)c3ccc(F)cc3)C2c2ccc(F)cc2)no1 (stereo not drawn)	9.47%
CC1=Nc2cc(C(=O)O)ccc2Sc2c(C)ccc(C)c21	-2.93%
CCOC(=O)C1(Cc2ccccc2C)CCCN(S(=O)(=O)CC)C1 (stereo not drawn)	21%
CCN(CC(=O)NC(C)C)Cc1nc2c(Br)cc(Br)cc2c(=O)[nH]1	11.9%
O=C(NCc1cccs1)C1CCN(S(=O)(=O)c2ccccc2F)CC1	11%
Cc1cccc(C)c1NC(=S)N1CCCN(C)CC1	11.9%
COCCNC(=O)/C(C#N)=C/c1cc(C)n(-c2ccc(C)cc2)c1C	8.12%
COc1ccc(C)c2sc(NC(=O)C3CC3)nc12	7.32%
CCOC(=O)c1c(NC(=O)CN2CCN(C(=O)c3ccco3)CC2)sc(C)c1C	7.11%
Cc1cc(N2C(=O)C3CCCN3C2c2ccc(Cl)c(Cl)c2)no1 (stereo not drawn)	13.6%
CC(C)(C)C1CCC(=NNC(=O)C(=O)NCc2ccco2)CC1 (stereo not drawn)	-0.0958%
O=C(COc1ccc(Cl)cc1[N+](=O)[O-])NC1CCCCC1	14.4%
Cc1cc(NC(=O)c2cccs2)ncc1NC(=O)C(C)C	8.65%
Cc1nc2ccc(NS(=O)(=O)c3ccc(F)c(F)c3)cc2s1	7.11%
COc1cc(C2C(C#N)=C(N)N(c3cccnc3)C3=C2C(=O)CCC3)ccc1O (stereo not drawn)	-4.41%
